# Assay results reported in article PMC5700166.
# The list shows a part of the results, in another mix than the full data. The list includes weakly bound sequences.
# Key:
# Experiment in all cases: protein-binding microarray (PBM)
# Conditions in all cases: PBM: ~300 nM protein, 6 mM HEPES pH 7.8, 80 mM KCl, 0.5 mM EDTA, 0.5 mM EGTA, 6% glycerol, 35 ng/ul poly-dIdC, 1% milk, 1 h, room temperature; Ap Aiptasia and Nv Nematostella (sea anemones) / Co Capsaspora / Aq Amphimedon (sponge) / Dm Drosophila / Hu human; RHD is the Rel homology domain; high values mean tight binding; most listed sequences are background and not binding sites; double strand, one strand shown
# [1] = biological target: T1, GST-Ap-NF-kB RHD (UniProt A0A913YAJ5)
# T1 sequence: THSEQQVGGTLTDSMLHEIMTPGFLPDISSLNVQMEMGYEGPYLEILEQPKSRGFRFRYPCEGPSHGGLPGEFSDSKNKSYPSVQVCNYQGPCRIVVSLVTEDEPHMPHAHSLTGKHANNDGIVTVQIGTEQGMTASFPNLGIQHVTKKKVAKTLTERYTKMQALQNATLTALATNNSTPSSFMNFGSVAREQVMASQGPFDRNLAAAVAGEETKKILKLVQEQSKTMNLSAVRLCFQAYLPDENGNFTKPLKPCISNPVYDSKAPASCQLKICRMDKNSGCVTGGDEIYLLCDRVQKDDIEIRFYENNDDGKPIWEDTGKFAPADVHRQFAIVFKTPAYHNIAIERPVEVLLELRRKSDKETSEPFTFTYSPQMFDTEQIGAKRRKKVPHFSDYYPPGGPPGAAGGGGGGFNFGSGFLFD
# [2] = biological target: T2, GST-Co-NF-kB (UniProt F1ARL5)
# T2 sequence: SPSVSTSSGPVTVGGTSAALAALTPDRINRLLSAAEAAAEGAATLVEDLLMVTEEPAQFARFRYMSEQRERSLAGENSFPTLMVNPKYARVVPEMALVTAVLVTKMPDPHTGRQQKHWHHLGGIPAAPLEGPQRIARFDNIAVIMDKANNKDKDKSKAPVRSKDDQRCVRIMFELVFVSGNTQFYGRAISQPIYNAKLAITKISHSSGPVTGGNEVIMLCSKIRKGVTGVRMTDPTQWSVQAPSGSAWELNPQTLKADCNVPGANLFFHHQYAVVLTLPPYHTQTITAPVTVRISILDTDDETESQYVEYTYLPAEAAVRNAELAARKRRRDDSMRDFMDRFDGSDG
# [3] = biological target: T3, GST-Aq-NF-kB (UniProt A9Y5G7)
# T3 sequence: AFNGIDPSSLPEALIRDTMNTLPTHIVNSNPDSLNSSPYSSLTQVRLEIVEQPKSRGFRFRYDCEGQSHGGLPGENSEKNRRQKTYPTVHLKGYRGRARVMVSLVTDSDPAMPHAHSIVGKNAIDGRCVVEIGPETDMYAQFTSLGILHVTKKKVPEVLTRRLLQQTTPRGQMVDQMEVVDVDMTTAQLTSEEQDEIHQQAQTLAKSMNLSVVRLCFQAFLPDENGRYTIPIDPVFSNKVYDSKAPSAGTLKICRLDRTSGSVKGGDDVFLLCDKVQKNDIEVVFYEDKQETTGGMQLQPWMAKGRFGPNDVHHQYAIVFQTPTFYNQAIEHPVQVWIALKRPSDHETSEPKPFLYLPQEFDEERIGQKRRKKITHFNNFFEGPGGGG
# [4] = biological target: T4, GST-Dm-Relish (UniProt Q94527)
# T4 sequence: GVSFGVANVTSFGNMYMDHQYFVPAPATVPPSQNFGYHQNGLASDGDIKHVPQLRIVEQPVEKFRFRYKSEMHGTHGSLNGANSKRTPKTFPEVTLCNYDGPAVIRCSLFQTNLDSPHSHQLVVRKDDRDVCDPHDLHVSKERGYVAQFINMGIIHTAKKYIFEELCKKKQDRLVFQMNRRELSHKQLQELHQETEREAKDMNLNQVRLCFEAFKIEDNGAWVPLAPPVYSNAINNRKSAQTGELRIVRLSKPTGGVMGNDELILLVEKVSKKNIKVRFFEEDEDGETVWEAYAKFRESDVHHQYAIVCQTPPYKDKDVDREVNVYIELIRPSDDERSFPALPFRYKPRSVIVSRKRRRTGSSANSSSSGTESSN
# [5] = biological target: T5, GST-Nv-NF-kB (Cys allele) (UniProt E5G601)
# T5 sequence: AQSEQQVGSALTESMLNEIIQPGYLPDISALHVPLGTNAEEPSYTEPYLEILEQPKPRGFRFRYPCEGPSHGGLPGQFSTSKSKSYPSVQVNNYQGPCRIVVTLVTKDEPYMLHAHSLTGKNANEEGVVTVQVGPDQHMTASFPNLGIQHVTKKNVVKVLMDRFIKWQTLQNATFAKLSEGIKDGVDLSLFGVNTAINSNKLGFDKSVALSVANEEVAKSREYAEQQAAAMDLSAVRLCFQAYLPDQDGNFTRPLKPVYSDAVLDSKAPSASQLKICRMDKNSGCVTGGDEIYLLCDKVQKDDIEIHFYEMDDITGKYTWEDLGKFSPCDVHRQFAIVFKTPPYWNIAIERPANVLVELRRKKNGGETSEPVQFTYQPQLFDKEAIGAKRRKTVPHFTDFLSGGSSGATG
Sequence,binding signal [1],binding signal [2],binding signal [3],binding signal [4],binding signal [5]
CCGATTAACATCAAGACTTTCCCTGATGTTAATCGGGTCTTGATTCGCTTGACGCTGCTG,4.06 z-score,2.92 z-score,6.09 z-score,,
CCGATTAACATCAGTTCCCCCCATGATGTTAATCGGGTCTTGATTCGCTTGACGCTGCTG,6.36 z-score,8.97 z-score,3.91 z-score,3.62 z-score,
CCGATTAACATCAGGAAACCCCCTGATGTTAATCGGGTCTTGATTCGCTTGACGCTGCTG,11.2 z-score,3.13 z-score,10.5 z-score,10.1 z-score,
CCGATTAACATCAGATAATTCCCTGATGTTAATCGGGTCTTGATTCGCTTGACGCTGCTG,5.7 z-score,4.01 z-score,7.02 z-score,3.74 z-score,
CCGATTAACATCAAAAACCCCCGTGATGTTAATCGGGTCTTGATTCGCTTGACGCTGCTG,9.67 z-score,4.41 z-score,8.35 z-score,10.8 z-score,
CCGATTAACATCAGGGGACCCCCTGATGTTAATCGGGTCTTGATTCGCTTGACGCTGCTG,9.65 z-score,4.17 z-score,8.56 z-score,10.7 z-score,
CCGATTAACATCAGCTTGGGAAATGATGTTAATCGGGTCTTGATTCGCTTGACGCTGCTG,0.921 z-score,2.33 z-score,0.966 z-score,0.0846 z-score,
CCGATTAACATCAGGGGGTGTAATGATGTTAATCGGGTCTTGATTCGCTTGACGCTGCTG,3.57 z-score,3.87 z-score,3.21 z-score,,
CCGATTAACATCAGTTTCCCAAATGATGTTAATCGGGTCTTGATTCGCTTGACGCTGCTG,0.893 z-score,2.19 z-score,1.17 z-score,,
CCGATTAACATCAGCATTCCCAATGATGTTAATCGGGTCTTGATTCGCTTGACGCTGCTG,0.584 z-score,1.08 z-score,0.985 z-score,0.39 z-score,
CCGATTAACATCACAAAATTCCCTGATGTTAATCGGGTCTTGATTCGCTTGACGCTGCTG,5.93 z-score,,6.82 z-score,6.16 z-score,
CCGATTAACATCAGGAATGTACCTGATGTTAATCGGGTCTTGATTCGCTTGACGCTGCTG,0.321 z-score,-0.683 z-score,3.14 z-score,,
CCGATTAACATCAGGGGAAGCACTGATGTTAATCGGGTCTTGATTCGCTTGACGCTGCTG,5.88 z-score,4.4 z-score,6.83 z-score,9.95 z-score,
CCGATTAACATCAAAACATCCCCTGATGTTAATCGGGTCTTGATTCGCTTGACGCTGCTG,6.41 z-score,4.63 z-score,7.07 z-score,,
CCGATTAACATCACAAAACCCCCTGATGTTAATCGGGTCTTGATTCGCTTGACGCTGCTG,9.76 z-score,3.3 z-score,7.82 z-score,10.4 z-score,
CCGATTAACATCAAACTTTTCCCTGATGTTAATCGGGTCTTGATTCGCTTGACGCTGCTG,3.37 z-score,,4.63 z-score,1.45 z-score,
CCGATTAACATCAGAAAACCCCCTGATGTTAATCGGGTCTTGATTCGCTTGACGCTGCTG,10.8 z-score,,8.84 z-score,10 z-score,
CCGATTAACATCACCAGGTTAGGTGATGTTAATCGGGTCTTGATTCGCTTGACGCTGCTG,-0.198 z-score,0.425 z-score,0.668 z-score,,
CCGATTAACATCAAGAACCTTCTTGATGTTAATCGGGTCTTGATTCGCTTGACGCTGCTG,-0.896 z-score,-0.395 z-score,-0.322 z-score,-0.267 z-score,
CCGATTAACATCAGAACTCCCCCTGATGTTAATCGGGTCTTGATTCGCTTGACGCTGCTG,7.91 z-score,6.15 z-score,6.48 z-score,,
CCGATTAACATCAGGGGAATCAATGATGTTAATCGGGTCTTGATTCGCTTGACGCTGCTG,,,4.26 z-score,,6.47 z-score
CCGATTAACATCAAAAAGACCCCTGATGTTAATCGGGTCTTGATTCGCTTGACGCTGCTG,,1.92 z-score,5.55 z-score,,4.44 z-score
CCGATTAACATCAAAAAATTCCCTGATGTTAATCGGGTCTTGATTCGCTTGACGCTGCTG,,,8.5 z-score,,10.3 z-score
CCGATTAACATCAAACAGCCCCCTGATGTTAATCGGGTCTTGATTCGCTTGACGCTGCTG,,1.91 z-score,5.29 z-score,,4.11 z-score
CCGATTAACATCAAGGGGGGTATTGATGTTAATCGGGTCTTGATTCGCTTGACGCTGCTG,,,5.2 z-score,,4.4 z-score
CCGATTAACATCACCGGAATTTCTGATGTTAATCGGGTCTTGATTCGCTTGACGCTGCTG,,0.796 z-score,2.45 z-score,,0.371 z-score
CCGATTAACATCAAATATTCCCCTGATGTTAATCGGGTCTTGATTCGCTTGACGCTGCTG,,10.1 z-score,8.12 z-score,,10.7 z-score
CCGATTAACATCACGTAAATCCCTGATGTTAATCGGGTCTTGATTCGCTTGACGCTGCTG,,1.01 z-score,3.3 z-score,,2.8 z-score
CCGATTAACATCAAAAATACCCCTGATGTTAATCGGGTCTTGATTCGCTTGACGCTGCTG,,,7.5 z-score,,8.45 z-score
